# The list shows a part of the results.
# B1: Epa1 (Candida glabrata), Q6FUW5_CANGA (protein)
# chain: MILNPALFLNKCVCIYTTLILLLLTNGGYATSSNDISLASKDPTTFPLGCSPDITTPKKGLSMELYSYDFRKKGSYPCWDAAYLDPNYPRTGYKSHRLLAKVDGVTGNINFYYHATKGCTPQLGHLPASYNYPKPLTMTNFTMLLYGYFRPKVTGFHTFTISADDLLFVNFGAGNAFDCCRRDSSADHFGNYQAYAIWGSKTAKDELTVHLDAGVYYPIRLFYNNREYDGALSFTFKTESNENTVSDFSEYFFSLDDTEEGCPGLISYDSSCASVKTSKIIGIDYHTETPNENLVPITKTIYHLGIPCTGTTTTPLCGSGFYDPLANKCVTINTSSTSSVTKTTSHTTSKEVSFHSSISSQKTLIPKSIPSPYGPIKSQSIPTEMETSSEISSSEYAFSDVISTPSHSPYTKKHSSLNSSSYTSTVIHSLTSYSISQGIFSTSLSEQNITSKSSTDKFSTATSMSNSITQSSIIISQSSTNNENYTTTSMHTSSDKISTETLNNSISTTTSILFSNSSTILKNNTTIISSDKDTHYHPVNPTIVCSTNKTEIICASITQPSISNSNNHWSSSVLRFNSTTVRSTLPSSAGSNETSINVPFSSSTESNASTSSTSTSNSKTVRSTLPSSAGSNETSINVPFSSSTESNTSTSSTSTSNSKTVRSTLPSSAGSNETSINVPFSSSTESNASTSSTSTSNSKTVRSTPFSSAGIIMTSLSQRNNKSASSYASSNSKCYNTADSCRKVHSTPSYLLTSSYTSEGVDYDCSLVSTKLKINDTNCLNNKHTTKSCLKTSVTTTIPTLEIKTARKSSSNTIGLHSYPTSSPNKSISSAPIIGYISSFKTIKTASPSYQTSDLTTITTITSLNNPGSTAVENTHESNDKSRKTSSNDISSKHSVIKETKDAVESSNKSHQTNTLKCSSIIIASSSHNSYESLGGTTLTLTLSKVYSPQNNDTLPFLEISEVNPSRTVLPESSKMMQYLTSTEERNKTARNTIATNIVSISTFHFEGEGNAIRMGYTQLLLMLIGIIVMNIGT
# Tests used:
# Assay in all cases: glycan array binding signal (z-score within array); higher = stronger binding
# Conditions in all cases: glycan notation: IUPAC condensed, linker removed
# [1] = biological target: Fuc(a1-2)[GalNAc(a1-3)]Gal(b1-4)[Fuc(a1-3)]GlcNAc
# In short: (§1)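 Columns mapping to the same glycan were averaged after glycan names were converted to IUPAC-condensed notation. The data come from 3228 arrays in the Consortium for Functional Glycomics database, limited to those with an available protein sequence. Binding is reported as a within-array Z-score averaged across arrays of one protein sequence and across linkers.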
# [2] = biological target: Fuc(a1-2)[GalNAc(a1-4)]Gal(b1-4)GlcNAc
# In short: as §1
# Fuc(a1-3)GlcNAc = biological target: Fuc(a1-3)GlcNAc
# In short: as §1
# [3] = biological target: Fuc(a1-3)[Gal(b1-4)]Glc6S
# In short: as §1
# [4] = biological target: Fuc(a1-3)[Gal(b1-4)]GlcNAc
# In short: as §1
# [5] = biological target: Fuc(a1-3)[Gal(b1-4)]GlcNAc(b1-3)Gal(b1-3)[Fuc(a1-4)]GlcNAc
# In short: as §1
# [6] = biological target: Fuc(a1-3)[Gal(b1-4)]GlcNAc(b1-4)Gal(b1-4)[Fuc(a1-3)]GlcNAc
# In short: as §1
# [7] = biological target: Fuc(a1-3)[Gal(b1-4)]GlcNAc(b1-4)Gal(b1-4)[Fuc(a1-3)]GlcNAc(b1-4)Gal(b1-4)[Fuc(a1-3)]GlcNAc
# In short: as §1
# [8] = biological target: Fuc(a1-3)[Gal(b1-4)]GlcNAc6S
# In short: as §1
# [9] = biological target: Fuc(a1-3)[Gal3S(b1-4)]Glc
# In short: as §1
# [10] = biological target: Fuc(a1-3)[Gal3S(b1-4)]Glc6S
# In short: as §1
# [11] = biological target: Fuc(a1-3)[Gal3S(b1-4)]GlcNAc
# In short: as §1
# [12] = biological target: Fuc(a1-3)[Gal3S(b1-4)]GlcNAc6S
# In short: as §1
# [13] = biological target: Fuc(a1-3)[GalNAc(b1-4)]Gal(b1-4)GlcNAc
# In short: as §1
# Fuc(a1-4)GlcNAc = biological target: Fuc(a1-4)GlcNAc
# In short: as §1
# Fuc(b1-3)GlcNAc = biological target: Fuc(b1-3)GlcNAc
# In short: as §1
# Gal(a1-2)Gal = biological target: Gal(a1-2)Gal
# In short: as §1
# Gal(a1-3)Gal = biological target: Gal(a1-3)Gal
# In short: as §1
# Gal(a1-3)Gal(b1-3)Glc = biological target: Gal(a1-3)Gal(b1-3)Glc
# In short: as §1
# Gal(a1-3)Gal(b1-3)GlcNAc = biological target: Gal(a1-3)Gal(b1-3)GlcNAc
# In short: as §1
# Gal(a1-3)Gal(b1-4)GlcNAc = biological target: Gal(a1-3)Gal(b1-4)GlcNAc
# In short: as §1
# [14] = biological target: Gal(a1-3)Gal(b1-4)[Fuc(a1-3)]GalNAc
# In short: as §1
# Gal(a1-3)GlcNAc = biological target: Gal(a1-3)GlcNAc
# In short: as §1
# [15] = biological target: Gal(a1-3)[Gal(a1-4)]Gal(b1-4)GlcNAc
# In short: as §1
# Gal(a1-4)Gal(b1-4)Gal = biological target: Gal(a1-4)Gal(b1-4)Gal
# In short: as §1
# Gal(a1-4)Gal(b1-4)GalNAc = biological target: Gal(a1-4)Gal(b1-4)GalNAc
# In short: as §1
# Gal(a1-4)GlcNAc = biological target: Gal(a1-4)GlcNAc
# In short: as §1
# Gal(a1-6)Glc = biological target: Gal(a1-6)Glc
# In short: as §1
# Gal(b1-2)Gal = biological target: Gal(b1-2)Gal
# In short: as §1
# Gal(b1-3)Gal = biological target: Gal(b1-3)Gal
# In short: as §1
# Gal(b1-3)GalNAc = biological target: Gal(b1-3)GalNAc
# In short: as §1
# [16] = biological target: Gal(b1-3)GalNAc(b1-3)Gal(a1-4)Gal(b1-4)Glc
# In short: as §1
# [17] = biological target: Gal(b1-3)GalNAc(b1-3)Gal(b1-4)Glc
# In short: as §1
# [18] = biological target: Gal(b1-3)GalNAc(b1-3)Gal(b1-4)GlcNAc
# In short: as §1
# [19] = biological target: Gal(b1-3)GalNAc(b1-4)Gal(b1-4)Glc
# In short: as §1
# [20] = biological target: Gal(b1-3)GalNAc(b1-4)[Neu5Ac(a2-3)]Gal(b1-4)Glc
# In short: as §1
# [21] = biological target: Gal(b1-3)GlcNAc(b1-3)Gal(b1-3)GlcNAc
# In short: as §1
# [22] = biological target: Gal(b1-3)[Fuc(a1-4)]GlcNAc
# In short: as §1
# [23] = biological target: Gal(b1-3)[Fuc(a1-4)]GlcNAc(b1-3)Gal(b1-3)[Fuc(a1-4)]GlcNAc
# In short: as §1
# [24] = biological target: Gal(b1-3)[Fuc(a1-4)]GlcNAc(b1-3)Gal(b1-4)GlcNAc
# In short: as §1
# [25] = biological target: Gal(b1-3)[Fuc(a1-4)]GlcNAc(b1-3)Gal(b1-4)[Fuc(a1-3)]GlcNAc
# In short: as §1
# [26] = biological target: Gal(b1-3)[GlcNAc(b1-6)]GalNAc
# In short: as §1
# [27] = biological target: Gal(b1-3)[GlcNAc(b1-6)]GlcNAc
# In short: as §1
# [28] = biological target: Gal(b1-3)[Neu5Ac(a2-6)]GalNAc
# In short: as §1
# [29] = biological target: Gal(b1-3)[Neu5Ac(a2-6)]GlcNAc
# In short: as §1
# [30] = biological target: Gal(b1-3)[Neu5Ac(a2-6)]GlcNAc(a1-4)Gal(b1-4)Glc
# In short: as §1
# [31] = biological target: Gal(b1-3)[Neu5Ac(b2-6)]GlcNAc
# In short: as §1
# [32] = biological target: Gal(b1-4)GalNAc(a1-3)[Fuc(a1-2)]Gal(b1-4)GlcNAc
# In short: as §1
# [33] = biological target: Gal(b1-4)GalNAc(b1-3)[Fuc(a1-2)]Gal(b1-4)GlcNAc
# In short: as §1
# Gal(b1-4)Glc = biological target: Gal(b1-4)Glc
# In short: as §1
# Gal(b1-4)Glc6S = biological target: Gal(b1-4)Glc6S
# In short: as §1
# Gal(b1-4)GlcNAc = biological target: Gal(b1-4)GlcNAc
# In short: as §1
# [34] = biological target: Gal(b1-4)GlcNAc(b1-2)Man(a1-3)[Gal(b1-4)GlcNAc(b1-2)Man(a1-6)]Man(b1-4)GlcNAc(b1-4)GlcNAc
# In short: as §1
# [35] = biological target: Gal(b1-4)GlcNAc(b1-3)Gal(b1-3)GlcNAc
# In short: as §1
# [36] = biological target: Gal(b1-4)GlcNAc(b1-3)Gal(b1-4)Glc
# In short: as §1
# [37] = biological target: Gal(b1-4)GlcNAc(b1-3)Gal(b1-4)GlcNAc
# In short: as §1
# [38] = biological target: Gal(b1-4)GlcNAc(b1-3)Gal(b1-4)GlcNAc(b1-3)Gal(b1-4)GlcNAc
# In short: as §1
# [39] = biological target: Gal(b1-4)GlcNAc(b1-3)Gal(b1-4)[Fuc(a1-3)]GlcNAc(b1-3)Gal(b1-4)[Fuc(a1-3)]GlcNAc
# In short: as §1
# [40] = biological target: Gal(b1-4)GlcNAc(b1-3)GalNAc
# In short: as §1
# [41] = biological target: Gal(b1-4)GlcNAc(b1-3)[Gal(b1-4)GlcNAc(b1-6)]GalNAc
# In short: as §1
binder,measurement,setting,value
B1,glycan array binding signal (z-score),[1],-0.552
same,glycan array binding signal (z-score),[2],-0.552
same,glycan array binding signal (z-score),Fuc(a1-3)GlcNAc,-0.549
same,glycan array binding signal (z-score),[3],-0.536
same,glycan array binding signal (z-score),[4],-0.549
same,glycan array binding signal (z-score),[5],-0.556
same,glycan array binding signal (z-score),[6],-0.551
same,glycan array binding signal (z-score),[7],-0.548
same,glycan array binding signal (z-score),[8],0.298
same,glycan array binding signal (z-score),[9],-0.555
same,glycan array binding signal (z-score),[10],-0.543
same,glycan array binding signal (z-score),[11],-0.55
same,glycan array binding signal (z-score),[12],-0.441
same,glycan array binding signal (z-score),[13],-0.555
same,glycan array binding signal (z-score),Fuc(a1-4)GlcNAc,-0.549
same,glycan array binding signal (z-score),Fuc(b1-3)GlcNAc,-0.555
same,glycan array binding signal (z-score),Gal(a1-2)Gal,0.111
same,glycan array binding signal (z-score),Gal(a1-3)Gal,0.75
same,glycan array binding signal (z-score),Gal(a1-3)Gal(b1-3)Glc,-0.55
same,glycan array binding signal (z-score),Gal(a1-3)Gal(b1-3)GlcNAc,0.421
same,glycan array binding signal (z-score),Gal(a1-3)Gal(b1-4)GlcNAc,1.42
same,glycan array binding signal (z-score),[14],0.265
same,glycan array binding signal (z-score),Gal(a1-3)GlcNAc,0.208
same,glycan array binding signal (z-score),[15],0.017
same,glycan array binding signal (z-score),Gal(a1-4)Gal(b1-4)Gal,0.374
same,glycan array binding signal (z-score),Gal(a1-4)Gal(b1-4)GalNAc,1.29
same,glycan array binding signal (z-score),Gal(a1-4)GlcNAc,2.1
same,glycan array binding signal (z-score),Gal(a1-6)Glc,0.344
same,glycan array binding signal (z-score),Gal(b1-2)Gal,0.97
same,glycan array binding signal (z-score),Gal(b1-3)Gal,2.4
same,glycan array binding signal (z-score),Gal(b1-3)GalNAc,1.77
same,glycan array binding signal (z-score),[16],2.31
same,glycan array binding signal (z-score),[17],1.31
same,glycan array binding signal (z-score),[18],1.4
same,glycan array binding signal (z-score),[19],2.02
same,glycan array binding signal (z-score),[20],2.27
same,glycan array binding signal (z-score),[21],-0.151
same,glycan array binding signal (z-score),[22],-0.332
same,glycan array binding signal (z-score),[23],-0.551
same,glycan array binding signal (z-score),[24],1.75
same,glycan array binding signal (z-score),[25],-0.545
same,glycan array binding signal (z-score),[26],2.14
same,glycan array binding signal (z-score),[27],1.72
same,glycan array binding signal (z-score),[28],1.1
same,glycan array binding signal (z-score),[29],2.02
same,glycan array binding signal (z-score),[30],1.84
same,glycan array binding signal (z-score),[31],0.26
same,glycan array binding signal (z-score),[32],1.99
same,glycan array binding signal (z-score),[33],2.42
same,glycan array binding signal (z-score),Gal(b1-4)Glc,2.22
same,glycan array binding signal (z-score),Gal(b1-4)Glc6S,2.26
same,glycan array binding signal (z-score),Gal(b1-4)GlcNAc,1.6
same,glycan array binding signal (z-score),[34],1.98
same,glycan array binding signal (z-score),[35],1.03
same,glycan array binding signal (z-score),[36],1.98
same,glycan array binding signal (z-score),[37],2.02
same,glycan array binding signal (z-score),[38],1.8
same,glycan array binding signal (z-score),[39],2.04
same,glycan array binding signal (z-score),[40],2.41
same,glycan array binding signal (z-score),[41],2.16
